smiles,measurement,setting,value
"CC(C)C(=O)OC[C@H]1O[C@@H](n2ccc(NO)nc2=O)[C@H](O)[C@@H]1O [Compound A, {(2R,3S,4R,5R)-3,4-dihydroxy-5-[4-(hydroxyimino)-2-oxo-3,4-dihydropyrimidin-1 (2H)-yl]oxolan-2-yl}methyl 2-methylpropanoate]",finding in 28-day toxicity study,"17 mg/kg/day in dogs, apparent at Day 7, increasing severity from Day 14",reversible hematology changes consistent with bone marrow toxicity
same,hematologic toxicity,"preclinical, noted on Day 7, progressed to more severe pancytopenia after 14-21 days of continuous exposure, fully reversible",mild hematologic toxicity
